Measurements published in PubChem BioAssay AID1466 (National Center for Advancing Translational Sciences (NCATS), 2008).
Hit rate of the full screen: of about 200,000 compounds, about 10 (0.005%) were called active. Inconclusive means that the source gave no clear call. Such entries were picked first, then a sample of the others. The call rests on the fitted dose curve; in most records, active means well fitted inhibition curve with a large enough effect; inconclusive means small, poorly fitted or top-dose-only effect, or effect the other way, or another doubt; inactive means no such curve, though single readings can be large or run the other way. Potencies of inconclusive entries are doubtful fits and often do not repeat.

Biological target: Lysosomal alpha-glucosidase (Homo sapiens) (UniProt P10253)
Experiment: qHTS Assay for Inhibitors of Human alpha-Glucosidase as a Potential Chaperone Treatment of Pompe Disease;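 on activity change, negative = inhibition: plate controls were uninhibited enzyme wells for no effect and no-enzyme background for full effect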
Details: purified human GAA, 4-MU-alpha-glucoside fluorescence; activity change, negative = inhibition: at 76.9 µM (top of the series) unless noted
Procedure, shortened: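 Human enzyme at 4 nM with 400 uM 4-methylumbelliferyl-alpha-D-pyranoside, citrate/phosphate buffer pH 5.0, 0.005% Tween-20, 20 min at room temperature. Compounds up to 77 uM. 4-MU fluorescence (Ex 365/Em 440) read after NaOH/glycine stop; AC50 from Hill fit.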
Potency means the concentration at half of the fitted maximal effect; tags describe the fitted curve by direction and shape.

Potency, inconclusive:
OC(CC1CC12c1ccccc1-c1ncccc12)(c1ccccc1)c1ccccc1 (stereo not given) 28.2 µM [inhibitor, partial curve, poor fit], O=C(Nc1ccc(Cl)cc1C(=O)Nc1ccccn1)c1ccco1 4.47 µM [inhibitor, single point], O=C(CC1NCCN(Cc2ccccc2)C1=O)Nc1ccccc1 (stereo not given) 39.8 µM [inhibitor, single point], O=C(CSc1ncccc1-c1nc2ccccc2[nH]1)NCc1ccco1 50.1 µM [activator, single point], CN(C)S(=O)(=O)N1CCCC(C(=O)c2ccc(-c3ccccc3)c(F)c2)C1 (stereo not given) 7.94 µM [inhibitor, full curve, poor fit], C=CCn1c(C(C)NC(=O)c2ccccc2)n[nH]c1=S (stereo not given) 11.2 µM [inhibitor, single point], O=C(c1ccco1)N1CCN(C(=O)c2oc(=O)c3ccccc3c2-c2ccccc2)CC1 39.8 µM [inhibitor, partial curve], CCOC(=O)c1sc2nc[nH]c(=O)c2c1C 3.16 µM [activator, partial curve], O=C(CN1C(=O)c2cccc3cccc(c23)C1=O)N1CCOCC1 50.1 µM [activator, single point], N#Cc1ccc(N2Cc3ccccc3C2=NC(=O)c2cccnc2Cl)cc1 0.794 µM [inhibitor, full curve, poor fit], Fc1ccc(CCNC(=S)Nc2ccc(F)c(Cl)c2)cc1 0.178 µM [activator, full curve, poor fit], COc1ccc(S(=O)(=O)N(CC(C)C)CC(C)C)c2cccnc12 10 µM [inhibitor, single point], C=CSc1sc(Cl)c(N2CCOCC2)c1[N+](=O)[O-] 31.6 µM [inhibitor, single point], O=S(=O)(N/N=C/c1c(F)cccc1Cl)c1ccccc1 0.178 µM [inhibitor, partial curve, poor fit], COC(=O)N/N=C/c1cc(C)n(-c2ccc(F)cc2)c1C 7.94 µM [inhibitor, single point], Cc1nc(N2CCOCC2)c2c(C)c(C(=O)Nc3ccc(C(F)(F)F)cc3)sc2n1 50.1 µM [inhibitor, single point], C=CCN1C(=O)NC2(O)C(=O)c3ccccc3C12O (stereo not given) 1.41 µM [inhibitor, full curve], Nn1c(SCc2cc([N+](=O)[O-])cc3c2OCOC3)nnc1-c1cccnc1 44.7 µM [inhibitor, single point], CC(C)(C)c1ccc(C(=O)N/C(=C\c2cccs2)C(=O)NCc2ccco2)cc1 56.2 µM [inhibitor, single point], O=C(N/N=C/c1ccco1)c1cccc(S(=O)(=O)Nc2ccccc2Cl)c1 56.2 µM [inhibitor, partial curve, poor fit], Cn1nnnc1SCC(=O)NC1CCCCC1 3.16 µM [inhibitor, partial curve, poor fit], CN(C(=S)Nc1ccc(F)cc1)C1(c2ccccc2Cl)CCCCC1=O (stereo not given) 31.6 µM [inhibitor, partial curve, poor fit], Cc1ccc(-c2ccnc3nc(Sc4ncc(C(F)(F)F)cc4Cl)nn23)cc1 8.91 µM [inhibitor, partial curve], O=S(=O)(c1cccs1)N1CCC(CO)(Cc2ccc(Cl)cc2)CC1 22.4 µM [inhibitor, partial curve], O=C(CCS(=O)(=O)c1ccccc1)Nc1nccs1 56.2 µM [inhibitor, single point], CCn1c(CSc2nc3ccccc3[nH]2)nc2cc(C(=O)O)ccc21 50.1 µM [activator, single point], Nc1n[nH]c(N)c1N=Nc1cccc(F)c1 39.8 µM [inhibitor, single point], COc1ccc(/C=C/C(=O)OCC(=O)Nc2cc(S(=O)(=O)N(C)C)ccc2Cl)cc1 10 µM [inhibitor, full curve, poor fit], C=CSc1sc(Cl)c(N(C)C)c1[N+](=O)[O-] 0.794 µM [activator, full curve, poor fit], CCC(=O)N(Cc1ccco1)Cc1cc2cc3c(cc2[nH]c1=O)OCO3 22.4 µM [activator, partial curve, poor fit], Cc1cc(/C=N/Nc2ccc([N+](=O)[O-])cn2)c(C)n1-c1ccc(C(=O)O)cc1 39.8 µM [inhibitor, partial curve], CCCn1cnc2c(c1=O)c1nc3ccccc3nc1n2CCC1=CCCCC1 39.8 µM [inhibitor, single point], O=C(Oc1ccc2c3c(c(=O)oc2c1)CCC3)c1ccco1 35.5 µM [activator, partial curve], Cc1cc(S(=O)(=O)N2CCC(NC(=O)C34CC5CC(CC(C5)C3)C4)CC2)ccc1-n1cnnn1 35.5 µM [inhibitor, partial curve], CSc1oc(-c2ccco2)nc1S(=O)(=O)c1ccc(Br)cc1 11.2 µM [inhibitor, single point], CC(C)CN(CC(C)C)S(=O)(=O)N1CCC(C(=O)NCc2ccc(F)cc2)CC1 3.98 µM [inhibitor, full curve, poor fit], COc1ccc(C2C=C(c3ccc(Br)cc3)Nc3nc(NS(C)(=O)=O)nn32)cc1 (stereo not given) 50.1 µM [activator, single point], CCCCNC(=O)C1CCC(CNc2nc(=S)[nH]c3ccccc23)CC1 (stereo not given) 56.2 µM [inhibitor, single point], CCOC(=O)C1CCCN(C(=O)c2cnn3c(C(F)F)cc(-c4ccc(C)cc4)nc23)C1 (stereo not given) 35.5 µM [inhibitor, single point], COc1ccc(NC(=O)/C=C2\SC(=O)NC2=O)cc1 50.1 µM [inhibitor, partial curve, poor fit], CSc1ccc2[nH]c(=O)cc(C)c2c1 56.2 µM [activator, single point], C=CCn1c(NC(=O)c2ccc(Br)o2)c(S(=O)(=O)c2ccccc2)c2nc3ccccc3nc21 31.6 µM [activator, partial curve], CC(C)c1ccc(/C=C2\Oc3c(ccc(O)c3CN3CCN(C)CC3)C2=O)cc1 31.6 µM [inhibitor, single point], COc1cc(/C=N/NC(=O)c2cc(-c3c(C)nn(-c4ccccc4)c3C)n[nH]2)ccc1O 15.8 µM [inhibitor, partial curve], COc1ccc2[nH]c(=O)c(C(c3nnnn3C3CCCCC3)N3CCN(C)CC3)cc2c1 (stereo not given) 35.5 µM [activator, partial curve]

Potency, inactive:
O=C(c1ccc(OC2CCN(Cc3ccccn3)CC2)cc1)N1CCCCCC1, CCc1ccccc1Nc1ccc(C(=O)O)cc1N, COc1ccc(C2C(CC(=O)O)=C(O)C(=O)N2c2ccccc2)cc1 (stereo not given), CCOc1ccccc1N1CCN(CC(=O)Nc2cc(C)on2)CC1, Cc1cccc(NC(=S)NC(=O)c2cc(-c3ccccc3)nc3ccccc23)c1, O=C(NCC1CCCO1)NC1(C(F)(F)F)Oc2ccccc2O1 (stereo not given), Cc1ccc(/C=C2/NC(=O)N(c3ccccc3)C2=O)o1, OC(COC(c1ccc(Cl)cc1)c1ccc(Cl)cc1)CN1CCc2ccccc2C1 (stereo not given)

Activity change, negative = inhibition, inconclusive:
Cc1ccc(/C(O)=C2\C(=O)C(=O)N(CCN(C)C)C2c2ccccc2F)cc1 (stereo not given) 18.5% [activator], Cn1nc(C(=O)N2CCOCC2)c2ccccc2c1=O 15.1% [activator] [at 15.4 µM], CC(C)CC(=O)Nc1ccc(-c2nnn(CC(=O)NCc3ccco3)n2)cc1 17.4% [activator], C=CCN(Cc1nc(-c2cc(OC)ccc2OC)oc1C)C1CCS(=O)(=O)C1 (stereo not given) 21.1% [activator], C=CCn1c(N)c(C(=O)Nc2ccc(C)c(C)c2)c2nc3ccccc3nc21 13.4% [activator], COc1cc(N/N=C/c2ccc(N(C)C)cc2)ncn1 23.9% [activator], CCC(C)N(C)C1CCN(C(=S)Nc2ccc(OC)cc2)CC1 (stereo not given) 22.4% [activator], COc1cc(NC(=S)NC(=O)c2ccco2)ccc1NC(=O)C(C)C 15% [activator], Cc1ccccc1NS(=O)(=O)c1ccc(Cl)cc1 16.3% [activator], COC(=O)CCCC(=O)N1CCCC(C(=O)c2ccc(OC)cc2C)C1 (stereo not given) 8.33% [activator], Cc1ccc(Nc2nc(N3CCOCC3)c3ccccc3n2)cc1 -15.4% [inhibitor], CC(=NCC1CCCO1)C1=C(O)CC(C)(C)CC1=O (stereo not given) -18.8% [inhibitor]
